Hit rate of the full screen: of about 310,000 compounds, about 2,200 (0.71%) showed an effect of 50% or more. The effect is printed as a negative number. Some of the results follow.

This experiment deals with human ether-à-go-go-related gene (hERG) potassium channel (human, UniProt Q12809). Description: primary screen, population patch clamp on CHO cells stably expressing hERG.
human ether-à-go-go-related gene (hERG) potassium channel, sequence (Q12809 whole entry, looked up): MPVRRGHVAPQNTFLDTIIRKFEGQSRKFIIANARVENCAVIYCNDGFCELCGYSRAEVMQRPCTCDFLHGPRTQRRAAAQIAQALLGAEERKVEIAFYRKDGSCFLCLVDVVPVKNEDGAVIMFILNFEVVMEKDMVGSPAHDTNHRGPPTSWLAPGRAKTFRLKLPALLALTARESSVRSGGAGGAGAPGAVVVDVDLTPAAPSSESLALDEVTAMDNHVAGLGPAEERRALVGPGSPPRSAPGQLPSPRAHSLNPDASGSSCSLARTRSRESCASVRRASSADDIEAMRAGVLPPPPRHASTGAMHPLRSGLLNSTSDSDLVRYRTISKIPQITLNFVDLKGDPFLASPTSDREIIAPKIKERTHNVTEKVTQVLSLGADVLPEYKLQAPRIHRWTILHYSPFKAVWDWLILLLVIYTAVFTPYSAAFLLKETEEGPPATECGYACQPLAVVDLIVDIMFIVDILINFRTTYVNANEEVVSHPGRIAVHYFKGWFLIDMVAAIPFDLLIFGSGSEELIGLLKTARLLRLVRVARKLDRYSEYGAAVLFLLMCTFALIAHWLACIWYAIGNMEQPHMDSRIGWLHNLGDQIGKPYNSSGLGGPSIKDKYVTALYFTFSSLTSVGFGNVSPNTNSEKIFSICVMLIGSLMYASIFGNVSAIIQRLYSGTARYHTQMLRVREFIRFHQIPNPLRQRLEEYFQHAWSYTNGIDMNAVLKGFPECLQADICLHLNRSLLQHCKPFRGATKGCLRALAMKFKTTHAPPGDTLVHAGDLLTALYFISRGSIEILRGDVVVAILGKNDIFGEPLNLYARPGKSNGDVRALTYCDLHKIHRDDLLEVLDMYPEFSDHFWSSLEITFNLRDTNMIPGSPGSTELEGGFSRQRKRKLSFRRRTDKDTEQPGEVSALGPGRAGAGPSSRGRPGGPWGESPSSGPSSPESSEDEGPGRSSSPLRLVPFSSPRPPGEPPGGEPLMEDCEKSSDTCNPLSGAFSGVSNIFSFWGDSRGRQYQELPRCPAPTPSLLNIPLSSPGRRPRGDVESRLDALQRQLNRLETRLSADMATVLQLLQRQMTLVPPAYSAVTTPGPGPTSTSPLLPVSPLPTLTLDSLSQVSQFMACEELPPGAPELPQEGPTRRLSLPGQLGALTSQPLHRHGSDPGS
For the molecule `CC(CNC(=O)c1cc(COc2ccc3ncccc3c2)on1)c1ccccc1` (stereo not drawn), the “hERG current change (%, negative = inhibition) at 1uM” value came to 13.2%.

On to `CC(/C=N/NC(=O)c1nnn(-c2nonc2N)c1C(C)C)=C\c1ccco1`, for which the “hERG current change (%, negative = inhibition) at 1uM” value turned out to be 10.7%.

As for `COC(=O)CNc1nc(-c2ccncc2)nc2ccccc12`, the “hERG current change (%, negative = inhibition) at 1uM” value is given as 6.72%. `O=S1(=O)CCOC[C@H](Cc2ccccc2)N1Cc1cccc(F)c1`: the “hERG current change (%, negative = inhibition) at 1uM” value was 7.43%. For the molecule `Cc1ccccc1NC(=O)c1ccc(F)c(S(=O)(=O)N2CCN(c3ccccn3)CC2)c1`, the “hERG current change (%, negative = inhibition) at 1uM” value stood at 6.71%. The result for `CC(C(=O)O)C1SC(=O)NC1=O` (stereo not drawn) reads 8.38%; that for `O=C1NCCCCC1NS(=O)(=O)c1cccc(C(F)(F)F)c1` (stereo not drawn), 9.87%. For `C/C(=N/NC(=O)c1ccccc1O)c1ccc(N2C(=O)C3CCCCC3C2=O)cc1` (stereo not drawn) the value was 19.4%; for `O=C(Nc1cccc2ccccc12)NC1CCCCC1O` (stereo not drawn), -2.01%. The result for `CCc1nc2c(n1O)CCc1nonc1-2` reads 2.68%; that for `Cc1ccc(OCCCn2ccnc2)c([N+](=O)[O-])c1`, -2.31%; that for `COc1cc(C2CC(=O)c3cnc(NC(=O)c4ccco4)nc3C2)cc(OC)c1OC` (stereo not drawn), 14.9%. On to `CSc1ncccc1C(=O)OCC(=O)NC(=O)NCCC(C)C`, for which the “hERG current change (%, negative = inhibition) at 1uM” value is recorded as -5.41%.

For `CCOc1ccc2nc(SCC3CC3(Cl)Cl)[nH]c2c1` (stereo not drawn), the “hERG current change (%, negative = inhibition) at 1uM” value is reported as 9.37%. As for `CC(=O)N1CCc2cc(S(=O)(=O)NC(C(=O)NC3CCCc4ccccc43)C(C)C)ccc21` (stereo not drawn), the “hERG current change (%, negative = inhibition) at 1uM” value came to 9.27%. The result for `Cc1ccc(SCCNC(=O)c2ccccc2)cc1` reads 6.83%; that for `Cc1ccc(S(=O)(=O)NCC(=O)OCC(=O)c2ccc(Cl)s2)cc1`, 8.17%. For `COc1ccc2c(c1OC)C(=O)N1C2SC[C@H]1C(=O)NC1CCCC1` (stereo partly drawn) the value was 16.3%; for `COc1ccccc1C(=O)COC(=O)c1ccccc1OCC(=O)Nc1ccc(SC(F)F)cc1`, 11.4%. Turning to `O=C(CC1CC2CCC1C2)NCc1cccs1` (stereo not drawn), the “hERG current change (%, negative = inhibition) at 1uM” value is recorded as 6.89%. For the molecule `Cc1ccc(N2CC(C(=O)N3CCC(C(=O)NC(C)(C)C)CC3)CC2=O)cc1` (stereo not drawn), the “hERG current change (%, negative = inhibition) at 1uM” value worked out at 17.7%.

With `CC(C)Cn1nnc2c(=O)oc3ccccc3c21`, the “hERG current change (%, negative = inhibition) at 1uM” value is listed as -6.01%. The result for `O=C(CCOc1ccccc1)Nc1ccnn1C1CCN(Cc2ccc(CO)o2)CC1` reads 10.8%; that for `Cc1c(C2OC(=O)C3(CCCCC3)C(=O)C2(C)C)c(=O)n(-c2ccccc2)n1C` (stereo not drawn), 2.52%; that for `COc1ccc(S(=O)(=O)N2CCCN(C)CC2)cc1.Cl`, 11.4%. Take `CC1S/C(=N/N=C2CCCCC2)NC1=O` (stereo not drawn): the “hERG current change (%, negative = inhibition) at 1uM” value turned out to be 12%.

In the case of `CCOC(=O)c1c(S(=O)(=O)Nc2ccc(F)cc2Cl)c(C)n(C)c1C`, the “hERG current change (%, negative = inhibition) at 1uM” value turned out to be 9.97%. As for `COc1ccc(N2C(=S)N=C(Nc3cccc(C)c3)C23CCCCC3)cc1`, the “hERG current change (%, negative = inhibition) at 1uM” value was determined as 14.6%. The result for `CCN(CCO)c1ncnc2onc(-c3ccc(F)cc3)c12` reads 8.08%. The result for `Cc1ccccc1NC(=S)NCc1cccn1C` reads -4.86%. The result for `Cc1cnc(NC(=O)Cc2ccccc2F)s1` reads 12.6%; that for `CC1CCCCC12NC(=O)N(CC(=O)OCC(=O)NC(=O)c1ccccc1)C2=O` (stereo not drawn), 9.8%; that for `CN(CCNC(=O)C1CCN(c2ncnc3c2nc2n3CCCCC2)CC1)Cc1ccccc1`, 10.7%.

As to `O=C(C1CCCCC1)N1CCCC(c2nc3c(nnn3Cc3ccccc3)c(=O)[nH]2)C1` (stereo not drawn), the “hERG current change (%, negative = inhibition) at 1uM” value is on record as -4.29%. Turning to `O=C(NNC1=NCCC1)c1cccc(S(=O)(=O)N2CCOCC2)c1`, the “hERG current change (%, negative = inhibition) at 1uM” value is recorded as 10.2%. With `CCCCNC(=O)c1ccc2nc(-c3ccco3)c(-c3ccco3)nc2c1`, the “hERG current change (%, negative = inhibition) at 1uM” value amounted to 3.57%. The result for `CC1CCN(C(=S)c2cn(Cc3ccc(F)cc3)c3ccccc23)CC1` reads 4.36%. The result for `CCOc1c2ccc(C(=O)NCc3ccco3)cc2nn1CCOC` reads 7.12%; that for `CCS(=O)(=O)N1CCN(C2CCC(C)CC2)CC1.O=C(O)C(=O)O` (stereo not drawn), 11.7%. In the case of `Cc1n(Cc2ccccc2)c2cc([N+](=O)[O-])ccc2[n+]1Cc1ccccc1.[Cl-]`, the “hERG current change (%, negative = inhibition) at 1uM” value turned out to be 19.1%. Take `CCN1CCN(Cc2c(C(=O)N/N=C(\C)c3ccc(Cl)cc3)nnn2-c2nonc2N)CC1.Cl`: the “hERG current change (%, negative = inhibition) at 1uM” value is 10.1%. On to `COc1c(C)cc(C(=O)C2CCCN(Cc3ccc(Oc4ncccn4)cc3)C2)cc1C` (stereo not drawn), for which the “hERG current change (%, negative = inhibition) at 1uM” value is recorded as -18.1%. `COc1ccc(C(=O)Nc2cc(C(C)=O)c(/C=C/N(C)C)oc2=O)cc1`: the “hERG current change (%, negative = inhibition) at 1uM” value is recorded as 10.7%. The result for `CCn1c(SCC(=O)NCc2ccc3c(c2)OCO3)nnc1-c1ccncc1` reads 14.1%; that for `COc1ccc(C(=O)N/N=C/c2ccccc2OC(=O)c2ccccc2)cc1`, 10.5%; that for `O=C1c2ccccc2CC1(Cc1ccccc1)Cc1ccccc1`, -11.4%. For `O=C(CSCc1cccc(Cl)c1)N1CCN(Cc2ccc3c(c2)OCO3)CC1` the value was -6.36%. As for `CC(C)CSc1n[nH]c(N)n1`, the “hERG current change (%, negative = inhibition) at 1uM” value is 11%.

For `CCOc1ccc2nc(NC(=O)C3=NN(c4ccccc4)C(=O)CC3)sc2c1`, the “hERG current change (%, negative = inhibition) at 1uM” value is 11.2%.

In the case of `CCN(CC)S(=O)(=O)c1cccc(NC(=O)COC(=O)C2CC3C=CC2C3)c1` (stereo not drawn), the “hERG current change (%, negative = inhibition) at 1uM” value is recorded as 11.8%. With `CC(=O)NC(Cc1ccccc1C)C(=O)NC1CCN(c2nnnn2-c2ccccc2)CC1` (stereo not drawn), the “hERG current change (%, negative = inhibition) at 1uM” value was 12.7%.

Take `CCOc1ncccc1-c1nc(-c2cccs2)no1`: the “hERG current change (%, negative = inhibition) at 1uM” value is 12.5%.

For the molecule `Cc1nc(SCC(=O)Nc2ccc(Cl)cc2[N+](=O)[O-])nc(C)c1C`, the “hERG current change (%, negative = inhibition) at 1uM” value was 8.86%.

`CCOC(=O)C1CCCN(CCC(=O)Nc2ccc3c(c2)CCC3)C1` (stereo not drawn): the “hERG current change (%, negative = inhibition) at 1uM” value is recorded as -8.84%. As to `CCCCCCC(=O)Nc1ccc(C(=O)N/N=C/c2cccnc2)cc1`, the “hERG current change (%, negative = inhibition) at 1uM” value came out at 0.253%. For `O=C1NN=COc2ccccc21` the value was 4.08%. The result for `CC(C)CC(=O)Nc1ccc(C(=O)COC(=O)C2=COCCO2)cc1` reads -9.02%; that for `CC(C)CC(=O)Nc1ccc(S(=O)(=O)N2CC3CC(C2)c2cccc(=O)n2C3)cc1` (stereo not drawn), 11.8%; that for `CN1CCN(C(=O)C2=C[C@H](c3ccc4c(c3)OCO4)C[C@H](OCCCCO)O2)CC1`, 6.53%. The result for `CCCc1ccc2oc(C(=O)N3CCN(C4CCS(=O)(=O)C4)CC3)c(C)c2c1` (stereo not drawn) reads 4.95%; that for `CC(C)c1ccc(/C=N/NC(=O)c2nnn(-c3nonc3N)c2CSC2=NCCS2)cc1`, 13.2%; that for `O=C(NCc1ccccn1)C1CCC(=O)N(Cc2ccc(Cl)cc2)C1` (stereo not drawn), 48.8%. `c1cn2cc(CSC3CCCCC3)nc2s1`: the “hERG current change (%, negative = inhibition) at 1uM” value stood at 6.16%.

Take `CCn1c(CC(=O)Nc2ccc(Cl)c(Cl)c2)nnc1SCc1ccc(C)cc1`: the “hERG current change (%, negative = inhibition) at 1uM” value turned out to be 16.1%. For `CC(C(=O)Nc1cccc([N+](=O)[O-])c1)N1C(=O)NC2(CCCC2)C1=O` (stereo not drawn) the value was 15.2%; for `COc1ccc(S(=O)(=O)N2CCCCC2)cc1NC(=O)c1ccc(=O)[nH]c1`, 6.14%. For `Cn1c(=O)c2c(nc(Oc3ccc4c(c3)OCO4)n2Cc2ccc(Br)cc2)n(C)c1=O` the value was 2.26%; for `Cc1cccc(Nc2c([N+](=O)[O-])c(=O)n(C)c3ccccc23)c1`, 10.4%; for `O=C(Cc1ccc(S(=O)(=O)N2CCOCC2)s1)NCCOc1ccccc1F`, 3.06%.

In the case of `CCCCOC(=O)C1=C(C)Nc2ncnn2C1c1ccc(OCC)c(OC)c1` (stereo not drawn), the “hERG current change (%, negative = inhibition) at 1uM” value was -17%. For the molecule `O=C(CN(c1ccccc1)S(=O)(=O)c1ccccc1[N+](=O)[O-])N1CCCC1`, the “hERG current change (%, negative = inhibition) at 1uM” value came to 18%. For `O=C(CSc1nc(C2CCCCC2)n(-c2ccccc2)n1)NCCN1C(=O)CSC1=O`, the “hERG current change (%, negative = inhibition) at 1uM” value was found to be 6.57%. The result for `Nc1ccc(S(=O)(=O)NC2=NCCCCC2)cc1` reads 10.8%; that for `COC(=O)C1=C(c2ccccc2)C[C@@H]2CC[C@H]1N2C(=O)NCc1cccc2ccccc12`, 15.4%; that for `CNC(=O)C1CCN(S(=O)(=O)c2c(C)noc2/C=C/c2cccc(C)c2)CC1`, 15.7%. The result for `COC(=O)C1=NN(C(=O)c2ccccc2)C(O)(c2ccc([N+](=O)[O-])cc2)C1` (stereo not drawn) reads -0.317%.

On to `Cc1cc(C)nc(SCC(=O)O)n1`, for which the “hERG current change (%, negative = inhibition) at 1uM” value worked out at 8.99%.

As for `O=C(O)/C=C/C(=O)Nc1ccc(-c2ccccc2)cc1`, the “hERG current change (%, negative = inhibition) at 1uM” value is 5.84%.

As to `CN1CCC2(O)OCCCC2C1` (stereo not drawn), the “hERG current change (%, negative = inhibition) at 1uM” value is 19.1%. For `Cc1ccccc1OCCN(C#N)c1nc(N(C)C)nc(N(C)C)n1` the value was 7.02%; for `CCN(CC)S(=O)(=O)c1cccc(NC(=O)c2cc3ccccc3o2)c1`, -11.3%; for `CCCOc1ccc(CSc2nnc(CCC)n2N)cc1`, 12.1%.

For `Cc1cc(C=C2C(=O)c3ccccc3C2=O)c(C)n1C`, the “hERG current change (%, negative = inhibition) at 1uM” value was 7.02%. The result for `Cc1ccc2oc(-c3cccc(NC(=O)c4cc(-n5cnnc5)ccc4Cl)c3)nc2c1` reads 3.32%; that for `Br.NC1=NN=C(c2ccc3c(c2)OCCO3)CS1`, 11.1%. As for `COc1ccc(-n2cnc3cc(NS(=O)(=O)c4ccc(C)cc4)ccc32)cc1`, the “hERG current change (%, negative = inhibition) at 1uM” value is recorded as -6.12%.

For `Cc1ccc(N/C=C/c2onc(C)c2[N+](=O)[O-])cc1`, the “hERG current change (%, negative = inhibition) at 1uM” value is given as 7.16%.

`O=C(Cn1c(=O)c(C(F)(F)F)nc2ccccc21)N1CCC2(CC1)OCCO2`: the “hERG current change (%, negative = inhibition) at 1uM” value is -0.212%. For `CCc1ccc(C(=O)COC(=O)c2ccc(Cl)nc2)cc1` the value was 12%; for `CC(Oc1cccc(Cl)c1)C(=O)Nc1ccc(S(=O)(=O)Nc2ncccn2)cc1` (stereo not drawn), 14.8%.

(Values after paper PMC4336329 (PLoS ONE, 2015).)
